# Assay results as given in the supplement of paper PMC12067230.
# The data scatter; read single values as rough.
# Assay: amyloid nucleation score relative to library mode (yeast Sup35 reporter selection) (log enrichment difference); higher = more amyloid nucleation; sequences are the first 22 residues of the Bri2 peptide extended by up to 12 random residues
# Conditions: random library (experiment): 1;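 active = nucleation score significantly above 0 at FDR 0.05; inactive = not significantly above 0 or absent from output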
# 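Further: [psi-pin-] Saccharomyces cerevisiae expressing SupN fusions, induced by 100 µM Cu2SO4, selected 7 d at 30 °C without adenine and uracil, scored by deep sequencing of output versus input.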
row,Sequence,amyloid nucleation score
1,EASNCFAIRHFENKFAVETLICNSVE,inactive
2,EASNCFAIRHFENKFAVETLICCAEPKVKVRDRD,-0.45
3,EASNCFAIRHFENKFAVETLICEAQCVSREDTRA,inactive
4,EASNCFAIRHFENKFAVETLICTARCMRCGETAR,inactive
5,EASNCFAIRHFENKFAVETLICAGKGVGRSTMGE,-0.317
6,EASNCFAIRHFENKFAVETLICYVSGLARAKWRM,inactive
7,EASNCFAIRHFENKFAVETLICLCKRA,4.42
8,EASNCFAIRHFENKFAVETLICDRLEFWYSLIAC,-0.444
9,EASNCFAIRHFENKFAVETLICDIRWGCRAKDGA,3.72
10,EASNCFAIRHFENKFAVETLICVRRLSVYAVMY,inactive
11,EASNCFAIRHFENKFAVETLICFNSNYWSGSWRA,5.77
12,EASNCFAIRHFENKFAVETLICLAVVW,6.62
13,EASNCFAIRHFENKFAVETLICYDSRSGPGWLLR,4.7
14,EASNCFAIRHFENKFAVETLICCRCPRTR,5.54
15,EASNCFAIRHFENKFAVETLICGHF,inactive
16,EASNCFAIRHFENKFAVETLICVVDQPARDVSAL,0.674
17,EASNCFAIRHFENKFAVETLICAMPFLW,6.55
18,EASNCFAIRHFENKFAVETLICQRRVSSWGAQRV,inactive
19,EASNCFAIRHFENKFAVETLICLKVWKSLSEELR,inactive

row,Sequence,amyloid nucleation score
1,EASNCFAIRHFENKFAVETLICLLSLDCGGVLLT,inactive
2,EASNCFAIRHFENKFAVETLICHP,inactive
3,EASNCFAIRHFENKFAVETLICCYTAYWF,4.75
4,EASNCFAIRHFENKFAVETLICGYVRYCMLFEV,inactive
5,EASNCFAIRHFENKFAVETLICGKAAAG,inactive
6,EASNCFAIRHFENKFAVETLICFSLYVMNATARN,2.15
7,EASNCFAIRHFENKFAVETLICYCSCTQFESSVT,8.29
8,EASNCFAIRHFENKFAVETLICRMALKYAGINAL,-0.0572
9,EASNCFAIRHFENKFAVETLICMLYDSFVVTFQ,inactive
10,EASNCFAIRHFENKFAVETLICTDILVGRNGWTV,inactive
11,EASNCFAIRHFENKFAVETLICRVWWYECGQSEL,1.94
12,EASNCFAIRHFENKFAVETLICEDKATTGVVSRS,inactive
13,EASNCFAIRHFENKFAVETLICVMRQFSPEANK,inactive
14,EASNCFAIRHFENKFAVETLICEGLAVSARSTAA,-0.438
15,EASNCFAIRHFENKFAVETLICPGTDFNPSWLWS,inactive
16,EASNCFAIRHFENKFAVETLICVHLSRRILVSLW,inactive
17,EASNCFAIRHFENKFAVETLICLFTKMRHGWSAI,inactive
18,EASNCFAIRHFENKFAVETLICTTAAWQG,-0.59
19,EASNCFAIRHFENKFAVETLICEMANMPR,2.57

row,Sequence,amyloid nucleation score
1,EASNCFAIRHFENKFAVETLICASMSVCCASGHV,6.28
2,EASNCFAIRHFENKFAVETLICTVQGTRGMALCV,inactive
3,EASNCFAIRHFENKFAVETLICIFRKVSLLHCEV,inactive
4,EASNCFAIRHFENKFAVETLICLQFVLKWGGS,inactive
5,EASNCFAIRHFENKFAVETLICFWMIGLASWNAE,inactive
6,EASNCFAIRHFENKFAVETLICTFKWRCNSVVG,inactive
7,EASNCFAIRHFENKFAVETLICCCLDWST,7.73
8,EASNCFAIRHFENKFAVETLICFSFVTVARRTRP,5.6
9,EASNCFAIRHFENKFAVETLICWAWWSLGKIV,-0.0755
10,EASNCFAIRHFENKFAVETLICIS,inactive
11,EASNCFAIRHFENKFAVETLICIYVQWLYPCKSL,inactive
12,EASNCFAIRHFENKFAVETLICAVWDTLHLLV,inactive
13,EASNCFAIRHFENKFAVETLICRVSFDYSGKPCW,2.31
14,EASNCFAIRHFENKFAVETLICDDWLCWSPNWLT,inactive
15,EASNCFAIRHFENKFAVETLICQRAKH,inactive
16,EASNCFAIRHFENKFAVETLICHHRMRASSNRTW,3.79
17,EASNCFAIRHFENKFAVETLICCWADRGARDGCP,8.4
18,EASNCFAIRHFENKFAVETLICRFVLRPDRMTRV,inactive
19,EASNCFAIRHFENKFAVETLICVYRRCRLRVGW,4.8

# Same assay, conditions: random library (experiment): 2
row,Sequence,amyloid nucleation score
1,EASNCFAIRHFENKFAVETLICGKRT,inactive
2,EASNCFAIRHFENKFAVETLICYDIPAVLCSA,inactive
3,EASNCFAIRHFENKFAVETLICVPT,-0.223
4,EASNCFAIRHFENKFAVETLICLHLVSMSTSTN,inactive
5,EASNCFAIRHFENKFAVETLICYYVTIAHVRAC,-0.223
6,EASNCFAIRHFENKFAVETLICQTVYDSLNCACR,inactive
7,EASNCFAIRHFENKFAVETLICYSQDCLLRFKCS,inactive
8,EASNCFAIRHFENKFAVETLICISRAVACGSCYQ,inactive
9,EASNCFAIRHFENKFAVETLICYFKGSVNASLSF,5.29
10,EASNCFAIRHFENKFAVETLICYGRVCISNVHNV,7.3
11,EASNCFAIRHFENKFAVETLICKCSFVYTSQPGN,6.01
12,EASNCFAIRHFENKFAVETLICVIVATCCHPVSV,inactive
13,EASNCFAIRHFENKFAVETLICYIMF,6.36
14,EASNCFAIRHFENKFAVETLICMSMFLCVVRRLQ,-0.0198
15,EASNCFAIRHFENKFAVETLICHDGARVTMKGSG,1.89
16,EASNCFAIRHFENKFAVETLICRSYKNWDGCEVQ,inactive

row,Sequence,amyloid nucleation score
1,EASNCFAIRHFENKFAVETLICVYSFAIK,inactive
2,EASNCFAIRHFENKFAVETLICCVMECVYYDNIL,7.27
3,EASNCFAIRHFENKFAVETLICMKSKSNFQFFDV,3.88
4,EASNCFAIRHFENKFAVETLICLSKSNRYRFMRV,inactive
5,EASNCFAIRHFENKFAVETLICWTVTTSLWETRI,inactive
6,EASNCFAIRHFENKFAVETLICRHANVHLSSGKT,5.57
7,EASNCFAIRHFENKFAVETLICGLEYYLNPYMKM,inactive
8,EASNCFAIRHFENKFAVETLICIVLCHMTVTIVD,5.25
9,EASNCFAIRHFENKFAVETLICFDSMVPLRKVGK,3.98
10,EASNCFAIRHFENKFAVETLICDCPYNGWLDFLV,inactive
11,EASNCFAIRHFENKFAVETLICVNYLRDFSVVRV,inactive
12,EASNCFAIRHFENKFAVETLICYKVVNIEYSGRV,8.78
13,EASNCFAIRHFENKFAVETLICLFSSPALPVRLG,inactive
14,EASNCFAIRHFENKFAVETLICNSSDGPLCLHFT,5.21
15,EASNCFAIRHFENKFAVETLICVFGSY,8.14
16,EASNCFAIRHFENKFAVETLICNHECYDKLVFGL,inactive

# Same assay, conditions: random library (experiment): 3
row,Sequence,amyloid nucleation score
1,EASNCFAIRHFENKFAVETLICNYAYVNYRYYKA,1
2,EASNCFAIRHFENKFAVETLICDWCRGCSILERI,1.09
3,EASNCFAIRHFENKFAVETLICIEWAANDVVNYG,0.468
4,EASNCFAIRHFENKFAVETLICKEPGLFANLNQG,inactive
5,EASNCFAIRHFENKFAVETLICLCTLVRDVRFIG,inactive
6,EASNCFAIRHFENKFAVETLICVSRLYGMESYTW,2.1
7,EASNCFAIRHFENKFAVETLICFKVCGKC,0.582
8,EASNCFAIRHFENKFAVETLICGAMEKVLGAELG,inactive
9,EASNCFAIRHFENKFAVETLICLEYTLCYPVVML,inactive
10,EASNCFAIRHFENKFAVETLICVVKVF,inactive
11,EASNCFAIRHFENKFAVETLICGHDPTLPAERVV,inactive
12,EASNCFAIRHFENKFAVETLICNTNGRGVVGGQN,0.758
13,EASNCFAIRHFENKFAVETLICFADVVISCFDTA,6.43
14,EASNCFAIRHFENKFAVETLICEAM,0.788
15,EASNCFAIRHFENKFAVETLICGWMITDNRMLVW,0.721
16,EASNCFAIRHFENKFAVETLICFMEDLIRVAIRL,inactive

row,Sequence,amyloid nucleation score
1,EASNCFAIRHFENKFAVETLICCMNCEQFKSGVC,6.66
2,EASNCFAIRHFENKFAVETLICTTATVYAGDDYV,4.39
3,EASNCFAIRHFENKFAVETLICQSRFFGMRGPCA,2.76
4,EASNCFAIRHFENKFAVETLICHFQWDRG,2.32
5,EASNCFAIRHFENKFAVETLICGARGHVMDDEST,inactive
6,EASNCFAIRHFENKFAVETLICITFWCLLCSDVR,inactive
7,EASNCFAIRHFENKFAVETLICYFVSPCCSSFVL,6.47
8,EASNCFAIRHFENKFAVETLICISVWLVRYVFPG,inactive
9,EASNCFAIRHFENKFAVETLICNVVSVMAWPCFA,5
10,EASNCFAIRHFENKFAVETLICHFRIVCM,inactive
11,EASNCFAIRHFENKFAVETLICRHRIRCRCKV,inactive
12,EASNCFAIRHFENKFAVETLICYLGNQTFKCCLG,5.82
13,EASNCFAIRHFENKFAVETLICKFMLSMSVWVIT,inactive
14,EASNCFAIRHFENKFAVETLICRVTYQCRRVNQW,3.72
15,EASNCFAIRHFENKFAVETLICTGSGRSRIGFVR,inactive
